Data as given in PMC4336329 (PLoS ONE, 2015).
Among all 310,000 compounds or so, about 2,200 (0.71%) showed an effect of 50% or more. Effects have a minus sign here. This is one part of the list.

Molecular target: human ether-à-go-go-related gene (hERG) potassium channel (human, UniProt Q12809)
Experiment: primary screen, population patch clamp on CHO cells stably expressing hERG

Sequence of human ether-à-go-go-related gene (hERG) potassium channel (Q12809 whole entry, looked up): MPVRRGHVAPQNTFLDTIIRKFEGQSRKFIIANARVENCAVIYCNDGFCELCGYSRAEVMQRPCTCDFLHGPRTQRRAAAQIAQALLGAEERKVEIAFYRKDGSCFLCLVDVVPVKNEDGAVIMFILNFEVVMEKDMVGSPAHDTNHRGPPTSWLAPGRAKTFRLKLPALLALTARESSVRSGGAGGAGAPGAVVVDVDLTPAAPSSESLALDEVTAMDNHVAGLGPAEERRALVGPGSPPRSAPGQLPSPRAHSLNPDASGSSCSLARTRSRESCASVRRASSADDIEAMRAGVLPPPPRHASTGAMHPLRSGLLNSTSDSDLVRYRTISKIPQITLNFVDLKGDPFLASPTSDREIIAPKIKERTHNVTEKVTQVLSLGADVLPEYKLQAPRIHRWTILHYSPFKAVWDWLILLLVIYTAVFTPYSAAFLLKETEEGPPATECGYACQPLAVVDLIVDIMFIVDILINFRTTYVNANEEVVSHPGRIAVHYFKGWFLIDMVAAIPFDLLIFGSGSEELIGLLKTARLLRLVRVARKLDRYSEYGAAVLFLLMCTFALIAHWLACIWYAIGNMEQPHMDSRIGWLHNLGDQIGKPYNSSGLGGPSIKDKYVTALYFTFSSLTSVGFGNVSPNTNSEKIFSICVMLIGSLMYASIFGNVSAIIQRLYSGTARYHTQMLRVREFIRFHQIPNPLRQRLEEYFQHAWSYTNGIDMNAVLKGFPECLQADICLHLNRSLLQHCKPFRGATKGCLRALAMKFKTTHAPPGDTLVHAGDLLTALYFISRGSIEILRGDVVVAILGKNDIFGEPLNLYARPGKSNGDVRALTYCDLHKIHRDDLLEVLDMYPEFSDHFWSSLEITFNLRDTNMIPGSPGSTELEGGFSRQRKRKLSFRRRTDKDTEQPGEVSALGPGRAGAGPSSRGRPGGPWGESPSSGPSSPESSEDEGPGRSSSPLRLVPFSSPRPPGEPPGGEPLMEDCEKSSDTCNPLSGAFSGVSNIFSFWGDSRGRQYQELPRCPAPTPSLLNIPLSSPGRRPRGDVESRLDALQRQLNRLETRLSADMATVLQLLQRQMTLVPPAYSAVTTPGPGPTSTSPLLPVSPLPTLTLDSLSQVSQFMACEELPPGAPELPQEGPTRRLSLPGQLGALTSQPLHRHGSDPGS

SMILES | hERG current change (%, negative = inhibition) at 1uM [%]
O=C(c1ccc2nc(Cc3cccc(Cl)c3)oc2c1)N1CCC(CO)CC1 | 11.3
Cl.O=C(c1ccc(Cn2cc(Cl)cn2)o1)N1CCN(Cc2ccc3c(c2)OCO3)CC1 | -13.3
COC(=O)N/N=C/c1c[nH]c2ccccc12 | 17.1
CCOC(=O)c1ccc(NC(=O)NNS(=O)(=O)c2cc(OC)ccc2OC)cc1 | 69.9
CC1CCN(S(=O)(=O)c2ccc(C(=O)Nc3ncccc3O)cc2)CC1 | 7.17
Cc1cccc(C(C)C)c1NC(=O)CN1C(=O)NC(Cc2ccccc2)C1=O (stereo not drawn) | 6.57
C/C(CC(=O)N(C(C)C)C(C)C)=N\NC(=O)COc1ccc(Cl)cc1Cl | 11.4
Cc1cc(NCc2ccccc2)n2ncnc2n1 | 7.03
CCOC(=O)CN1C(=O)N[C@@H](c2cccc(F)c2)C(C(=O)OC)=C1C | 15.1
CCCn1c(=O)c2ccccc2n2c(SCC(N)=O)nnc12 | 11
Fc1ccc(-c2ccc(/C=N\n3cnnc3)o2)cc1Cl | 9
COc1ccccc1NC(=O)Cn1cnc2sc(C(=O)NCc3ccco3)c(C)c2c1=O | 14.2
Cc1ccc(-n2nnnc2SCC(=O)Nc2cccc(NC(=O)c3ccco3)c2)cc1C | 5
COc1ccccc1C1=NC(c2ccc(C)cc2)N=C1C (stereo not drawn) | -3.45
O=C(Nc1cnccn1)c1ccc(Cl)cc1 | 7.97
COc1cccc(-n2nnnc2S(C)(=O)=O)c1 | -0.242
O=c1/c(=C\c2ccc3c(c2)OCO3)sc2n1CCCN=2 | 5.5
O=C(NC1CCCCC1)C(c1ccc(F)cc1)N(Cc1ccccc1)C(=O)CN1C(=O)c2ccccc2S1(=O)=O (stereo not drawn) | 16.6
COc1ccc(C(=O)NCC2CCCO2)cc1OC (stereo not drawn) | 7.51
CC(C)Cn1c(SCC(=O)NC(=O)Nc2ccc3c(c2)OCCO3)nc2ccccc2c1=O | 7.58
O=[N+]([O-])c1cccc(-c2nc(-c3ccncc3)no2)c1 | 0.854
Cc1ccccc1N/N=C/c1ccc(N2CCOCC2)cc1 | 11.6
COc1ccccc1C(=O)N/N=C/C(C)=C/c1ccccc1 | -27.2

SMILES | hERG current change (%, negative = inhibition) at 1uM [%]
C/C=C/c1ccc(OCCOCCOc2cccc3cccnc23)c(OC)c1 | 5.07
COc1ccccc1NC(=O)c1c[nH]c2ccccc12 | 15
O=C(CSc1ccc2nnc(-c3cccnc3)n2n1)Nc1ccc(F)cc1 | -0.488
COc1ccc(NC(=O)CCN2CCN(S(=O)(=O)c3cc(Cl)ccc3OC)CC2)cc1 | 9.95
NC1=NC[C@@H](Cc2ccc(O)cc2)N1CCCCC1CCCCC1 | 8.18
COc1ccc(C(OC(=O)c2ccco2)C(=O)NC2CCCC2)cc1OC (stereo not drawn) | 9.39
Cc1ccccc1NC(=O)c1ccc(CN(c2ccccc2)S(=O)(=O)c2ccccc2)cc1 | 7.73
COc1ccc(OCCCC(=O)Nc2nccs2)cc1 | 16.7
O=C(CCCn1c(=S)[nH]c2cc3c(cc2c1=O)OCO3)NC1CC1 | 9.78
COC(=O)CSc1nnc(-c2ccc(S(=O)(=O)N3CCCC3)cc2)o1 | 19.6
Cc1ccc(O)c(C2=Nc3ccccc3N=C(c3ccco3)C2)c1 | 8.73
O=C1CCC(C(=O)N2CCC(CCO)CC2)CN1Cc1ccc(Cl)cc1 (stereo not drawn) | -2.64
COc1ccc(-c2cc(C(=O)Nc3ccccc3SC)no2)cc1OC | -1.28
CCOC(=O)c1cccc(NC(=O)CCc2nnc3ccc(N4CCCCC4)nn23)c1 | 15
O=C(Nc1ccc(SC(F)F)cc1)c1ccc2nccnc2c1 | 3.35
CCCC1(C(=O)O)NC(c2ccc(OC)cc2O)C2C(=O)N(c3ccc(OC)cc3)C(=O)C21 (stereo not drawn) | 14.7
CC(=O)Nc1ccc(NC(=O)Cc2sc(C)nc2-c2ccc(C)cc2)cc1 | -1.13
CCOCCCNC(=O)CCc1nnc2n(CCC(C)C)c(=O)c3ccccc3n12 | 4.7
O=C(NCCN1CCOCC1)c1cccc(S(=O)(=O)Nc2ccc(F)cc2)c1 | 5
CCC(C(=O)OCC(=O)Nc1c(Cl)cc(Cl)cc1Cl)c1ccccc1 (stereo not drawn) | 9.64
Cc1ccc(C)c(OCCC(=O)OCC(=O)N2c3ccccc3NC(=O)C2(C)C)c1 | -6.56
Cc1ccc(-c2cc(C(=O)N3CC(C)OC(C)C3)c3ccccc3n2)o1 (stereo not drawn) | -3.72
